± gives the standard deviation of the averaged measurements. In all, about 33,000 sequences were measured (“E-score (dimensionless, -0.5 to 0.5)”: median about -0.049, highest 2% from about 0.37 on). The list shows a part of the results.

The test system of the assay is T1, PmTbr T-box DNA-binding domain (GST fusion).
T1 sequence: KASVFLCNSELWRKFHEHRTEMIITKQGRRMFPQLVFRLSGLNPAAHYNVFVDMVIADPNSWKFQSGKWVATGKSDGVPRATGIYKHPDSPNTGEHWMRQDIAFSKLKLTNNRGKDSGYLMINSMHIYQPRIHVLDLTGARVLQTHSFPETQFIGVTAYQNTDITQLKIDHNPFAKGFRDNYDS
In words: PBM E-score of 8-mer (E-score (dimensionless, -0.5 to 0.5)); Tbr is Tbrain of the sea star Patiria miniata (Pm) or the sea urchin Strongylocentrotus purpuratus (Sp); higher = stronger binding preference; most listed sequences are background and not binding sites. The conditions noted are these: the construct has about 5 more residues each side. In short, it runs like this: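 GST-fused Tbr T-box DNA-binding domains (the whole T-box plus about five flanking residues) were expressed in BL21 E. coli at 20 °C and purified by glutathione affinity chromatography. Universal Agilent oligonucleotide arrays were made double-stranded by primer extension, incubated with 200 nM protein in PBS (pH 7.5), then scanned and quantified. Every ungapped 8-mer was scored from probe intensities. The Universal PBM Analysis Suite gave each word an enrichment E-score, averaged over duplicate arrays.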
With GACGGTCC, the “PBM E-score of 8-mer” value was -0.0974 ± 0.024.

Consider ACAAGTTG, for which the “PBM E-score of 8-mer” value was 0.274 ± 0.0084.

Take CAACGGGC: the “PBM E-score of 8-mer” value is -0.103 ± 0.1.

AACAAACA: the “PBM E-score of 8-mer” value came to 0.0143 ± 0.064.

With GCCAACGA, the “PBM E-score of 8-mer” value amounted to 0.0922 ± 0.0074.

Turning to AAATTTAG, the “PBM E-score of 8-mer” value was -0.128 ± 0.1.

As to CCGGAGCG, the “PBM E-score of 8-mer” value is -0.0906 ± 0.03.

CCTGCGTC: the “PBM E-score of 8-mer” value is -0.101 ± 0.018.

CTGTTATA: the “PBM E-score of 8-mer” value was 0.184 ± 0.016.

Turning to AAGCTATT, the “PBM E-score of 8-mer” value is -0.242 ± 0.06.

ACGACGAG: the “PBM E-score of 8-mer” value turned out to be 0.0538 ± 0.051.

GATTGTAA: the “PBM E-score of 8-mer” value is -0.226 ± 0.0084.

Turning to CAACTTAG, the “PBM E-score of 8-mer” value is 0.123 ± 0.042.

With AAACGGAG, the “PBM E-score of 8-mer” value was -0.092 ± 0.077.

As to CCGAAGTC, the “PBM E-score of 8-mer” value is -0.117 ± 0.045.

As to CTACGCCA, the “PBM E-score of 8-mer” value is -0.028 ± 0.049.

Take GCACACCC: the “PBM E-score of 8-mer” value came to 0.24 ± 0.055.

With ACTACGCT, the “PBM E-score of 8-mer” value was -0.146 ± 0.009.

As for TCAGGGCA, the “PBM E-score of 8-mer” value was -0.159 ± 0.0023.

Consider TGCATCCA, for which the “PBM E-score of 8-mer” value was determined as 0.0545 ± 0.011.

For TCTGTTAA, the “PBM E-score of 8-mer” value came to 0.117 ± 0.056.

Regarding AGCACGCA, the “PBM E-score of 8-mer” value was determined as 0.133 ± 0.057.

AAACCCCT: the “PBM E-score of 8-mer” value was -0.0778 ± 0.056.

In the case of ATTAGAAC, the “PBM E-score of 8-mer” value is -0.161 ± 0.0031.

ACATGAGA: the “PBM E-score of 8-mer” value came to 0.00905 ± 0.019.

On to ACGGGTTG, for which the “PBM E-score of 8-mer” value worked out at 0.00984 ± 0.068.

Regarding GGTAAGCA, the “PBM E-score of 8-mer” value was -0.0891 ± 0.041.

For the sequence ATGGGCGC, the “PBM E-score of 8-mer” value was found to be 0.0518 ± 0.0048.

As for TATCAGGA, the “PBM E-score of 8-mer” value is -0.121 ± 0.0063.

Consider ACAGGTAC, for which the “PBM E-score of 8-mer” value is 0.101 ± 0.064.

Regarding CAAACATC, the “PBM E-score of 8-mer” value was found to be 0.131 ± 0.015.

For the sequence AACGCGCC, the “PBM E-score of 8-mer” value was found to be 0.187 ± 0.0068.

For the sequence AAATAGTT, the “PBM E-score of 8-mer” value is -0.0971 ± 0.021.

For CCCATTGC, the “PBM E-score of 8-mer” value was -0.0492 ± 0.012.

In the case of GCGGACGC, the “PBM E-score of 8-mer” value turned out to be 0.0267 ± 0.032.

For the sequence CTCGACTC, the “PBM E-score of 8-mer” value worked out at 0.02 ± 0.016.

Turning to ACCTACAA, the “PBM E-score of 8-mer” value is -0.0275 ± 0.012.

ATGGTAAG: the “PBM E-score of 8-mer” value is -0.0662 ± 0.042.

As to GAAATTCC, the “PBM E-score of 8-mer” value is -0.208 ± 0.052.

Consider CACCCTAA, for which the “PBM E-score of 8-mer” value was found to be 0.225 ± 0.021.

Consider GCGCTCAA, for which the “PBM E-score of 8-mer” value was -0.00447 ± 0.036.

Take CATTCTGA: the “PBM E-score of 8-mer” value is -0.223 ± 0.048.

Turning to GGATGGAC, the “PBM E-score of 8-mer” value was -0.191 ± 0.032.

Turning to ACAGTTCA, the “PBM E-score of 8-mer” value worked out at 0.136 ± 0.046.

Consider CGCCTCCA, for which the “PBM E-score of 8-mer” value is 0.156 ± 0.028.

ATCACTGC: the “PBM E-score of 8-mer” value was -0.0346 ± 0.0018.

GTCTGTAA: the “PBM E-score of 8-mer” value is -0.076 ± 0.08.

Consider GAACGATC, for which the “PBM E-score of 8-mer” value was -0.116 ± 0.037.

Turning to TCACTGGA, the “PBM E-score of 8-mer” value is -0.0222 ± 0.052.

Take CCTCCCGA: the “PBM E-score of 8-mer” value was -0.00356 ± 0.09.

Consider CTACCCGC, for which the “PBM E-score of 8-mer” value was -0.00509 ± 0.015.

Consider AGTTAAAC, for which the “PBM E-score of 8-mer” value is -0.196 ± 0.034.

Turning to AACCATGC, the “PBM E-score of 8-mer” value was -0.035 ± 0.047.

Regarding ACGGCCAG, the “PBM E-score of 8-mer” value was determined as 0.0877 ± 0.014.

For AAAGTCAA, the “PBM E-score of 8-mer” value is -0.0861 ± 0.02.

GCTCTGAC: the “PBM E-score of 8-mer” value was -0.205 ± 0.092.

Regarding ACCACATG, the “PBM E-score of 8-mer” value came out at 0.0223 ± 0.078.

CCGGAACA: the “PBM E-score of 8-mer” value was -0.0637 ± 0.001.

For GGCCCAAC, the “PBM E-score of 8-mer” value was -0.179 ± 0.037.

Regarding TAAATGAA, the “PBM E-score of 8-mer” value was -0.251 ± 0.033.

As for ACTTAGGC, the “PBM E-score of 8-mer” value is -0.0594 ± 0.1.

On to ACCCCGTC, for which the “PBM E-score of 8-mer” value was 0.0195 ± 0.049.

For CTGCCAAC, the “PBM E-score of 8-mer” value was found to be 0.0539 ± 0.0096.

Consider CACTCTAG, for which the “PBM E-score of 8-mer” value came to 0.223 ± 0.0029.

With CCCGGAGG, the “PBM E-score of 8-mer” value was -0.219 ± 0.053.

Turning to GATCACAC, the “PBM E-score of 8-mer” value is 0.451 ± 0.014.

Turning to AGGGTTTC, the “PBM E-score of 8-mer” value was -0.0564 ± 0.037.

For the sequence CGGTTCCA, the “PBM E-score of 8-mer” value is -0.0723 ± 0.017.

For the sequence GCTGTCAC, the “PBM E-score of 8-mer” value was found to be 0.3624 ± 0.0017.

Consider AGAACGGG, for which the “PBM E-score of 8-mer” value was found to be 0.0952 ± 0.0063.

Take CTGAAAAA: the “PBM E-score of 8-mer” value is -0.055 ± 0.01.

With CCTTATTC, the “PBM E-score of 8-mer” value was -0.2061 ± 0.00076.

On to ACAACGTA, for which the “PBM E-score of 8-mer” value was -0.0174 ± 0.061.

As for ACACCGCC, the “PBM E-score of 8-mer” value was found to be 0.223 ± 0.027.

Take CGGCCCCG: the “PBM E-score of 8-mer” value was -0.277 ± 0.033.

In the case of AGGGTTAC, the “PBM E-score of 8-mer” value is -0.0859 ± 0.069.

As to AAATCAAT, the “PBM E-score of 8-mer” value came to 0.0923 ± 0.026.

On to GCAGGCAA, for which the “PBM E-score of 8-mer” value is -0.216 ± 0.011.

Take CTATCTAA: the “PBM E-score of 8-mer” value is -0.0551 ± 0.063.

For CAACCGCG, the “PBM E-score of 8-mer” value stood at 0.1 ± 0.0095.

Take AACAAGAT: the “PBM E-score of 8-mer” value is -0.0647 ± 0.12.

Turning to CGATGCAC, the “PBM E-score of 8-mer” value was -0.12 ± 0.041.

With AGTCCAGG, the “PBM E-score of 8-mer” value is -0.336 ± 0.027.

Take ATAGGAGA: the “PBM E-score of 8-mer” value is -0.25 ± 0.028.

For GGCCGTAA, the “PBM E-score of 8-mer” value is -0.278 ± 0.011.

Take AGCTAGAT: the “PBM E-score of 8-mer” value is -0.239 ± 0.025.

The record behind these values is the supplement of paper PMC4166925.
